Experimental data taken from the supplement of paper PMC12632987.
In all, about 4,500 sequences were measured (“median log2 fold change of GCK-ALFA target abundance (FLAG IP / Myc IP barcode read proportion)”: median about 0.078, lowest 2% from about -0.6 on). The list shows a part of the results.

B1: GBRAP_52_5990 (protein)
chain: MEEEAREVAERALALRLEGREEEARALLEEVVETKSPEFIRLVAEELARLARTATPEERDAIVDVAIDLEDIALEAGFDEAEADDGLARVAAAAHDALLA
B2: GBRAP_14_3874 (protein)
chain: KEKALEIAKEEIDEMAELLEEAIPEKAAEIAAMREKLLAAAEEFFTSEEDPEEAAEKLKAYAEKVVAEFAKGLSPEDAALARAIAGVELGDLLLEIDELL
B3: GBRAP_184_5303 (protein)
chain: AVRHVVIEAETAEEALAQLRAAAAAARAAGERLAVDLFLKNVSVEGFARVAALLAELRAEGVLAAATVHIENDKTEEEVDAFVAIADAAGLRLVLALPDE
B4: GBRAP_160_4794 (protein)
chain: SERIEKVAEIFREEAERALEMARGETVEERVAIFDVELGSAIMEAIEEGLLNDEEEDIAIEVRDELVEEVRRNPELTEEELRELARRKIEELRERLEELE
B5: GBRAP_11_2794 (protein)
chain: KKEKLKELAKVLEEAAAALEALIAAGPSDAAGWKKASKLLQEALKLAKEAGDEDTAELLKIAQEELAEAQADPANRQQHLQNALAAVRVALGLTLLAIEE
B6: GBRAP_160_4861 (protein)
chain: EEKLKRALEILEEARKEALAAIDEAPASQRAAVAEAYMGEAIMELIEEGLLNDELEEKLDEVRRELRARLLANADASVEEHKALVTEAFDRMKEIIKELM
B7: GBRAP_52_5893 (protein)
chain: MLEEAIEKLKEAIEAVKAGDEEKAKEILKEIVENFDEDTIIEAVEKLAEEILSKSLEEAKAFYETMEMLAEIWEEMGKDPEIASYIEAIAGAALYKVEQK
B8: GBRAP_125_3115 (protein)
chain: DEEQLLADLATIAKALGFDDDDIEEALRLARKFGLKQTLIAIMLAEGYEENAELADKLSEEEVKQAVKELAAYIKAHPDLTPEEVKKKLKEILEKLLAKS
B9: GBRAP_53_6387 (protein)
chain: MEEEIEKLKKEYRELLKKIEKADEEEAVKLGKEAVEILVELAKLGAPEEELEELTKEFAEQVKKHPELRPLALELAKRLYELGKENAAGILAETLVEELE
B10: GBRAP_128_3407 (protein)
chain: AVEAARAYTRELMERIKTGDAATARAAVAELVARLETLDEAEREAALETFEELLPELSEEKLDVVADTLRELRPTVDPETAEYVIEMEVEAGEEILEKEE
B11: GBRAP_80_6856 (protein)
chain: AAAALAAALAALKALLPEVAEDAKEIVEIARELGVPDADIADLMEALAELAKVDPELAAELIKELLEELKEEKERGDAERALAVVRGYAGEALMLAEELE
B12: GBRAP_52_6133 (protein)
chain: MREELREKVLELLELVKAGKLEEAKKRLLKIAKELSDEELREFAREFAEVVRELPPEDLDAAAELLELAEEALEEAGRPEELISLLIGEGARALYEVEQR
B13: GBRAP_52_6237 (protein)
chain: AAARMAALARRIVELVRAGDEAGARALAEELAATLNEEELRLFIDEFAALAATQPAEDIDAVARAAEIIAEALEAAGWPDVLVDDLEARVAAALVAVEER
B14: GBRAP_11_2745 (protein)
chain: KKEKLKKIAELAEKLAKTLQELIDKGVDNEKLLKEAEKLLEELTKLVKEHGDKSLQKLAEIAKENFEKAKADPANALQYLQEALAAARVLEGQVLLEIEE
B15: GBRAP_39_5646 (protein)
chain: EEKEEQELEFSYLLAIGEKYMVDNGLTDEQVPAETRRAAARVIAEHPEIAPLVEELLALAEAGDIEHQIAALGAFLLAEEGLPVEELREHLEKLIAYFKT
B16: GBRAP_52_6170 (protein)
chain: SEEEARRVAEELLEAVRAGDEERVRELLERIAREFSDEEIAATLAEVARRVPELSPEDKERVVEAALELEDIAVEAGHDEEVLDIEVARVAAAAYDALQA
B17: GBRAP_128_3584 (protein)
chain: SVAAARAYTRATLAAIKAADAATRRALARDLAERFASLSPEEQEAAADTILELLPELSPEDLRALADALRAADTSDSPLQTNLAAEVEVEALNKEEEEEE
B18: GBRAP_78_6721 (protein)
chain: ELEKLLDEAIEKLNEAAKLALELPEEKSNELLDLLVEAINLLMEIIENNLKKEEAIKLLEKAAKLLEEALKLLGGENPELKKKVEEAKKLVEEALKLLKK
B19: GBRAP_11_2697 (protein)
chain: KKEELKKAKELAEKLAKVLEQLIKEGVDNKELLAEAKKLLEEIKKLVEKYGDEGLKTLAKIIEELFKKALEDKENAVEYLKEAQAAARVLAGQFLLLIEE
B20: GBRAP_14_3862 (protein)
chain: MEKLVKAVDEAAKDLKELVKVVAPEHAEEINKKVDELAKKIKEKIKKENLNIEEVEELVEKAAEELAAYLKEKGYLSDTEIAALKAHLLSEILLKLEEIE
B21: GBRAP_184_5329 (protein)
chain: KTLEVHIENLPIEEIKKKVEEALKEAAAQGAALSIYIDASGYSIEEIKELIEYIGELAKKYGVKDVTLGIDKAVNEEEADILIEIADKYGIRLVLPLEDE
B22: GBRAP_11_2823 (protein)
chain: KKEALKEIAEKAKELADKLKALIASGKPTQEQLDELKKMAEELLKLEKKYGDKDQIKLAEILLEEINEAIANPETQLQHLQNALAAAQVLEGQALLDLEE
B23: GBRAP_137_3667 (protein)
chain: MIDAEIEIENGQAFATLTYKGDKATAERLAEVIEDVAGEIPGIAVSVEINDDGTLVADLFGTLEEVREALKRIARRMNLDVKVTTRDEETGEVTEETIKA
B24: GBRAP_128_3236 (protein)
chain: MSEEVRKKVEELIEKIINGSLEETREATRELVELMGELDDETAEEIAEMLIKAIPKLTKEKLDVVADVLRENRGKLDPLKAALAAEVEIEALEQAEELEE
B25: GBRAP_35_5593 (protein)
chain: SIKELLLDSTLDHIEALIAGIPELDPETVAALAKSVVKLAEAAIEELKGDKESLKKLLEGVEKLIKELEKHYKDNPLIQEAVKELKKVAEAIKKEIKKAE
B26: GBRAP_166_4970 (protein)
chain: MQEEIVKELKEFIDEKAEEMKTANHEEKLELLAEVAEKIGEAIKKGLSNENLKELIEYLIKKAKEVGISYSEVEGALTILADLDEEQVDILIEARKKVEK
B27: GBRAP_184_5075 (protein)
chain: SVREETIRVENVEEARAKMAALAERVRDHRGDLVVLVEMPEADLEIMRAVLEGLAAILAAGYARRVTVGFDAEVTEEQVDEAVALADRLGVNVVLPLKEE
B28: GBRAP_9_7107 (protein)
chain: KEEFAKKVKEIIEEAAEEIKKIVPEELKPKVDEMVEEILKEIDKLAKDKNTTVEEIAKAAKEGLKKMAEELSKLLSPEIAAGVETIVLTAIEEIDELAEE
B29: GBRAP_83_6985 (protein)
chain: KEEIVIATPADKAEEAAKIVIDLSKKYDVTLEILVTNREEDKQKVKDAVDKLAKAGVEMEVIVHGLGMTEEEAKKLKEELEAIAKKHGVDIKVTVVLEEK

Molecular target: GABARAP, O95166
Sequence (O95166 whole entry, the tested form may be a part): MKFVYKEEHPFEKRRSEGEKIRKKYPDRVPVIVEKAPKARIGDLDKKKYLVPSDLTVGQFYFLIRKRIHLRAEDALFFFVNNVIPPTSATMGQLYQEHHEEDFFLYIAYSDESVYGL
Assay: median log2 fold change of GCK-ALFA target abundance (FLAG IP / Myc IP barcode read proportion) (log2 ratio); each designed protein is fused to an ALFA-tag nanobody in HEK293 cells to bring the named protein to FLAG-tagged glucokinase (GCK); Myc marks an untargeted standard; higher = target protein stabilised (more abundant)
Settings: target protein: 3xFLAG-MCP-GCK-ALFA reporter; HEK293 landing pad (RPLP)
How it was run: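 Binders fused to an ALFA nanobody were recombined as a library into HEK293 landing-pad cells, which were induced with 2 μg mL^−1 doxycycline and then transfected to express a FLAG-tagged target and a Myc-tagged standard. After 48 h, circular RNA barcodes recovered by anti-FLAG and anti-Myc immunoprecipitation of lysates were reverse transcribed, amplified and sequenced. Each binder's target abundance is the median log2 ratio of FLAG to Myc barcode read proportions, from barcodes present at ≥10^−7 in both replicates, binders carrying ≥3 barcodes per replicate, a 10^−6 pseudocount and pooled replicates.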

| Binder | median log2 fold change |
| --- | --- |
| B1 | -0.14 |
| B2 | -0.12 |
| B3 | 0.0834 |
| B4 | 0.169 |
| B5 | 0.173 |
| B6 | 0.228 |
| B7 | 0.0936 |
| B8 | -0.409 |
| B9 | 0.0549 |
| B10 | -0.149 |
| B11 | -0.242 |
| B12 | 0.086 |
| B13 | 0.0282 |
| B14 | 0.224 |
| B15 | 0.294 |
| B16 | 0.0058 |
| B17 | 0.136 |
| B18 | 0.00845 |
| B19 | 0.341 |
| B20 | 0.197 |
| B21 | -0.086 |
| B22 | -0.158 |
| B23 | 0.0191 |
| B24 | 0.171 |
| B25 | -0.248 |
| B26 | -0.135 |
| B27 | 0.0908 |
| B28 | 0.487 |
| B29 | 0.078 |
